Values joined by “and” are separate entries in the source; they are usually repeats but may differ in a detail not shown here. Equal entries are not always repeated.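 Assay format: 96-well plates, 48-hour exposure. GI50 is the concentration that inhibits growth by half. The concentration for full growth arrest is given as TGI.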 Peptide text beside a SMILES is read from it. * marks the point of attachment. Fmoc = O=C(OCC1c2ccccc2-c2ccccc21)*; Boc = CC(C)(C)OC(=O)*
Tested on: NCI-H322M lung
Assay: DTP human tumour cell line panel, 48 h

SMILES	TGI	GI50
COc1cc2c3c(c1OC)-c1c(ccc4c1OCO4)CC3(C#N)N(C(=O)c1ccccc1)CC2 (configuration not stated)	> 100 µM	
N=c1c2c(-c3ccccc3)c[nH]c2ncn1N	> 100 µM	
CS(=O)(=O)N(N(CCCl)S(=O)(=O)c1ccccc1)S(C)(=O)=O	> 100 µM	
CCCCCCCCCCCCCC[n+]1ccc2c(C)c3c(c(C)c2c1)c1cc(O)ccc1n3CC	1.73 µM	0.443 µM
COc1ccc(Cn2cc3c(c2-c2ccc(OC)cc2)CCc2cnoc2-3)cc1	> 100 µM	0.596 µM
CC1(C)Cc2cc(C(=O)O)c3c(c2C1=O)COCC3	> 100 µM	
CC(C)(C)c1cc(C2=NN(c3ccccc3)C(c3ccccc3)C2)cc(C(C)(C)C)c1O (configuration not stated)	> 100 µM	
O=C(Nc1nc2ncn(CCNCc3ccccc3)c2c(=O)[nH]1)c1ccccc1	> 100 µM	
Cc1cc(C)nc(SC(C)C(=O)N/N=C/c2ccc(OCc3ccccc3)cc2)n1 (configuration not stated)	> 100 µM	
CCCCCCCCCCCCCP(=O)(O)OCC	> 100 µM	
CC(=Nc1ccccc1)C1=C(O)C(Cc2ccccc2)NC1=O (configuration not stated)	> 100 µM	0.0657 µM
CCC1CCc2nc3sc(C(=O)Nc4cccc(F)c4)c(N)c3cc2C1 (configuration not stated)	> 100 µM	> 100 µM
Cn1ccnc1C(=O)/C=C/c1ccccc1	20.4 µM	7.01 µM
N#CSCC1CC(O)(c2ccccc2)CC(c2ccc(F)cc2)O1 (configuration not stated)	14 µM	3.3 µM
Clc1ccc(C2SCc3nc4ccccc4n32)cc1Cl (configuration not stated)	37 µM	
CC1(CCCO)CCCCCCCCCC(C)(CCCO)C1=O (configuration not stated)	> 100 µM	
CCn1cc(C(=O)O)c(=O)c2cc3c(cc21)S(=O)(=O)CC3	> 100 µM	
CC(C)(C)OC(=O)NCCCCC(NC(=O)OCC1c2ccccc2-c2ccccc21)C(=O)N1CCCC1C(=O)NCC(N)=O (stereo not drawn) (Fmoc-Lys(Boc)-Pro-Gly-NH2; configuration not given here)	> 100 µM	
O=C1CCC(=O)N1n1c(Cc2ccc(Cl)cc2)n[nH]c1=O	> 100 µM	
CN(CC(=O)N(Cc1ccc(C2CCCCC2)cc1)c1ccc(C(=O)O)c(O)c1)S(=O)(=O)c1c(F)c(F)c(F)c(F)c1F	23.5 µM	9.3 µM
CN1C(=O)[C@@H]2[C@@H]3c4ccccc4N(S(=O)(=O)C(F)(F)F)[C@@H]3c3[nH]c4ccccc4c3[C@@H]2C1=O	> 100 µM	
Fc1ccccc1C1CC(c2ccc3ccccc3c2)=Nc2ccccc2S1 (configuration not stated)	> 100 µM	
CCOC(=O)NC(NC1=NCCS1)(C(=O)OCC)C(F)(F)F (configuration not stated)	> 100 µM	
Cc1cc(NC[C@H](O)[C@H](O)[C@H](O)CO)c(Sc2cc(=O)[nH]c(=O)[nH]2)cc1C	> 62.5 µM	

SMILES	TGI	GI50
c1ccc2c(c1)ncn2C1CCCCO1 (configuration not stated)	> 100 µM	
O=C(O)c1cccc(N=Nc2c(S(=O)(=O)O)ccc3c2C(=O)c2ccccc2C3=O)c1O	> 100 µM	
CCOC(=O)C1=C(C)N(c2ccc(C)cc2)C2=C(C(=O)N(c3ccccc3)C2c2ccccc2)C1c1ccccc1 (configuration not stated)	> 25 µM	
O=C(CC1(O)C(=O)Nc2c(Cl)cc(Cl)cc21)c1cccc2ccccc12 (configuration not stated)	33.5 µM	
CC1(Cl)CCC2(CC(Br)=CC3OC32C)CC1Br (configuration not stated)	> 100 µM	
COc1cc(OC)c(C2CC=Cc3c(OC)cc(OC)c(OC)c32)cc1OC (configuration not stated)	> 100 µM	
Fc1ccc(Nc2nc3nonc3nc2Nc2ccc(F)cc2)cc1	10.4 µM	0.452 µM
COc1ccc(OC)c(/C=C(/C)[N+](=O)[O-])c1	14.8 µM	4.1 µM
CC1OC(OC2C(O[C@H]3CC[C@@]4(C)C(=CC[C@H]5[C@@H]6C[C@@H]7O[C@]8(CC[C@H](C)CN8)[C@@H](C)[C@@H]7[C@@]6(C)CC[C@@H]54)C3)OC(CO)C(O)C2OC2OC(CO)C(O)C(O)C2O)C(O)C(O)C1O (some centres not stated)	37.9 µM	
O=[N+]([O-])c1cccc(C2ON2C2CCCCC2)c1 (configuration not stated)	> 100 µM	
O=C(Nc1ccc2ncnc(Nc3ccc(Oc4cccc(F)c4)c(Cl)c3)c2c1)c1ccc(CNCCO)cc1	2.68 µM	1.33 µM
CCSc1cc(=O)n(C)c(=O)n1C	> 100 µM	
O=C(/C=C/c1ccc(/C=C/C(=O)c2ccc(O)cc2)cc1)c1ccc(O)cc1	> 100 µM	
COc1ccc2c(c1)C(=O)c1c-2c(Nc2ccc(Cl)cc2)nc2ccccc12	> 100 µM	23.1 µM
CC(C)C1=CCC2C(=C1)CCC1C(C)(C(=O)O)CCCC21C (configuration not stated) (tested in a mixture with another compound)	> 100 µM	
COc1ccc(Nc2c3ccccc3nc3ccccc23)cc1	16.9 µM	3.85 µM
CC(=C(C(N)=O)C(N)=O)C1C=C(c2cccs2)CC(c2ccc(Cl)cc2)=C1O (configuration not stated)	> 100 µM	
N#Cc1c(N)nc(N2CCOCC2)c(C#N)c1-c1cccnc1	> 100 µM	> 100 µM
COc1ccc(/C=c2\sc3n(c2=O)C(N)=C(C#N)C(c2ccc(OC)cc2)C=3c2nc3ccccc3[nH]2)cc1 (configuration not stated)	61.5 µM	
CC(=O)O[C@]1(C(C)=O)CC[C@H]2[C@@H]3C=C(C)C4=CC(=O)CC[C@]4(C)[C@H]3CC[C@@]21C	> 100 µM	> 100 µM
O=C(Cc1nccc2c1[nH]c1ccccc12)OC1C#CCSCC#C/C=C\1 (configuration not stated)	> 100 µM	
COc1cc(/C=C/C(=O)c2ccc(NC(=O)CN3CCN(c4cc5c(cc4F)c(=O)c(C(=O)O)cn5C4CC4)CC3)cc2)cc(OC)c1OC	4.19 µM	0.505 µM
COc1cc2c(cc1C)NC(=O)/C2=C\c1cccc(Oc2ccccc2)c1	46.7 µM	19.7 µM
COc1ccc(C(SCCO)(c2ccccc2)c2ccccc2)cc1	29.8 µM	

SMILES	TGI	GI50
Cc1cc(N(CCNc2ccnc3cc(Cl)ccc23)Cc2ccco2)nc(Cl)n1	3.12 µM	1.67 µM
COc1ccc2c(c1)n([O-])c1ccccc1[n+]2=O	> 100 µM	23.8 µM and 48.7 µM
COc1ccc(/C(C#N)=C/c2ccc(OC)c(OC)c2)cc1	> 100 µM	
CCc1cccc(C(C)C)c1N1C(=O)C(=O)C(c2nc3ccccc3s2)C(=O)C1=O	> 50 µM	
COc1cc(COC(=O)N(CC(=O)O)c2ccccc2)c([N+](=O)[O-])cc1OC	> 100 µM	
N=C(N)SCc1ccc(Cl)cc1Cl (tested in a mixture with another compound)	> 57.3 µM	
Cc1noc2nnn(-c3ccc(Cl)cc3)c(=O)c12	24.2 µM	
N#C/C(=C\c1cc(Cl)cc(Cl)c1)c1ccccn1	> 100 µM	
O=C(Cc1nc2ccccc2s1)Nc1cccc(C(F)(F)F)c1	27.3 µM	
C1CCN(c2nc(=[N+]3CCCCC3)ss2)CC1	> 100 µM	
CCOC(=O)Cc1nc2sc(S(N)(=O)=O)nn2c1Br	> 100 µM	
C[C@@H](CO)[C@@H]1CCC=C2CC[C@]3(C)[C@H](CC[C@@H]4[C@@]5(C)CCCNC(C)(C)[C@@H]5CC[C@]43C)[C@H]21	12.7 µM	3.55 µM
CSCCCNC(=O)c1csc(-c2csc(C(CNC(=O)OC(C)(C)C)CNC(=O)OC(C)(C)C)n2)n1	> 100 µM	
CC(C)[Si](OC1=CCC[C@H]2NC(=O)[C@@H](Cc3ccccc3)[C@@]12C)(C(C)C)C(C)C	24.5 µM	
CCN(C(=O)c1cc(F)ccc1Oc1cncnc1N1CC2(CCN(CC3CCC(NS(=O)(=O)CC)CC3)CC2)C1)C(C)C (configuration not stated)	> 100 µM	> 100 µM
COc1cc(Nc2ccnc(NCCCNc3ccnc4cc(Cl)ccc34)n2)cc(OC)c1	5.38 µM	1.83 µM
COc1cc(C2C(C(=O)O)=C(COC(C)=O)Oc3cc4c(cc32)OCO4)cc(OC)c1OC (configuration not stated)	> 100 µM	
O=C(Cn1ccnc1[N+](=O)[O-])c1ccc(F)cc1	> 100 µM	
O=C(NCc1ccc(Cn2c(=O)sn(-c3ccccc3)c2=O)cc1)OCc1ccc2c(Br)cc(Br)c(O)c2n1	3.02 µM	1.54 µM
C=C(Br)N(CC)CC	> 100 µM	
CN1CCN(c2ccc3nc(-c4ccc5nc(-c6ccc(OCCC(C)(C)C)cc6)[nH]c5c4)[nH]c3c2)CC1	23.8 µM	11.6 µM
O=C1[C@@H]2[C@@H](c3ccccc3)[C@]2(Cl)C(=O)[C@H]2[C@H](c3ccccc3)[C@@]12Cl	> 100 µM	
COc1cc2c3c(n(CCCI)c(=O)c2cc1OC)-c1cc2c(cc1C3=O)OCO2	> 100 µM	5.67 µM
CC(=O)N(O)[C@@H]1CC[C@H](n2cnc3c(N)ncnc32)C1	> 100 µM	

SMILES	TGI	GI50
O=C(NP(=O)(N1CC1)N1CC1)c1cc(I)ccc1I	> 100 µM	
C=C1CC/C=C(\C)C(=O)C[C@@H]2[C@@H]1CC2(C)C	> 58.6 µM	
CC1C[C@@H]2C(=O)NC(=O)[C@@H]2c2c1c1ccccc1n2C (some centres not stated)	> 100 µM	
CCCCCCCCCCCC1CCCC(C)N1 (configuration not stated)	29.8 µM and 157 µM	15.4 µM
O=c1[nH]c(=O)n(C2CC(O)C(CO)O2)cc1C1=NC1 (configuration not stated)	> 100 µM	
Cn1c2ccccc2c2c(=O)[nH]c(=O)[nH]c21	> 100 µM	
COC1(OC)CC(CO)(CNc2cc(Cl)nc(N)n2)C1	> 100 µM	
COc1cc(O)c(C(=O)/C=C/c2ccc(O)cc2)c(O)c1[C@@H]1C[C@H](CCc2ccc(O)cc2)O[C@H](c2ccc(O)cc2)C1	18.2 µM	5.32 µM
COC(=O)CCC(=O)CC(=O)C(=O)Nc1c(Cl)cc([N+](=O)[O-])cc1Cl	> 100 µM	
Oc1[nH]c2ccc(Cl)cc2c1/C=c1/ccc2c(c1)N=C(c1ccc(F)cc1)N=2	7.22 µM	2.62 µM
CCN1CCN(c2nc3ccc([N+](=O)[O-])cc3nc2C(=O)c2ccccc2)CC1	> 100 µM	
O=C1c2ccccc2C(=O)c2c1ccc(C1C(=O)c3ccccc3C1=O)c2-c1c(C2C(=O)c3ccccc3C2=O)ccc2c1C(=O)c1ccccc1C2=O	> 100 µM	
CC(C)(C)c1cc2c3c(c1)C(C(F)(F)F)(C(F)(F)F)O[Te]3(C)OC2(C(F)(F)F)C(F)(F)F	> 100 µM	
COc1cc2c(cc1Nc1nc(Nc3ccsc3C(N)=O)c3cc[nH]c3n1)N(C(=O)CN(C)C)CCC2(C)C	6.1 µM	1.6 µM
CCCCCCOP(=O)(OCCCCCC)C(NC(=O)OCC)(C(F)(F)F)C(F)(F)F	> 100 µM	
Nc1nc(-c2ccccc2)nc(N)c1N=O	50 µM	17.4 µM
NC(=O)c1cc(-c2ccc(F)cc2)cc(-c2ccncc2)c1N	> 25 µM	> 25 µM
NC(=O)c1ccc2nc(-c3ccc(Oc4ccc(Cl)cc4)cc3)[nH]c2c1	> 75 µM and 30.7 µM	> 75 µM and 16.1 µM
N#Cc1c(N)sc2c1-c1ccccc1OC2	> 100 µM	
O=[N+]([O-])c1c(Br)sc(Br)c1[N+](=O)[O-]	30.9 µM	15.7 µM
COCCCNC(=O)CC(=O)NCCCOC	> 100 µM	
CNC(=O)N(C)COC	> 100 µM	
CCCCN1C(=O)c2c(-c3sccc3N)sc(-c3sccc3N)c2C1=O	> 100 µM	

Source: PubChem BioAssay (NCI)
